Measurements: PubChem BioAssay AID743279 (National Center for Advancing Translational Sciences (NCATS), 2014)
The campaign covered roughly 360,000 compounds. About 17,000 (4.7%) were called active. The inconclusive results got no clear call from the source; some entries with a clear call stand among them for comparison. Rule as the data show it: active = activity change below about -50%; inconclusive = mostly about -30% to -49%; inactive = weaker than that.

assay: qHTS for Inhibitors of Inflammasome Signaling: IL-1-beta AlphaLISA Primary Screen; settings: THP-1 LPS/ATP IL-1B secretion, 16 h; at 57.5 µM, stronger effect = lower value
Summary of the method: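 Secreted IL-1B measured by AlphaLISA bead assay after 16 h compound exposure of THP-1 cells; compounds (final up to 57.5 uM) added 1 h before LPS (250 ng/mL) and ATP (1.25 mM) stimulation; lower signal means less secretion.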
% is scaled to controls: 0 for no effect and ±100 for the full control effect.

SMILES | activity change
CN1C(=S)NC(C)(C)CC1(C)c1ccc(O)cc1O (configuration not stated) | inactive: 7.89%
CNCC[C@H](Oc1ccc(C(F)(F)F)cc1)c1ccccc1 | active: -68.4%
Cc1nc(N2CCN(C)CC2)c2c(C)c(C(=O)Nc3ccc(F)cc3)sc2n1 | active: -78.4%
CCCn1c(=O)n(C)c(=O)c2c(SC(C)C(=O)NCC3CCCO3)nc(CC(C)C)nc21 (configuration not stated) | inconclusive: -37.8%
Cc1ccc(NC(=O)c2ccc(NC(=O)c3ccccc3)cc2)cc1C | inactive: 0%
COc1ccc(C)cc1N/C(N)=N/c1nc(C)cc(C)n1 | active: -98.1%
CN(c1ccc(C(=O)Nc2ccccn2)cc1)S(=O)(=O)c1ccccc1 | inactive: 11.8%
COc1ccc(-c2nnc(NC(=O)Cc3ccccc3)s2)c(OC)c1 | inactive: 14.7%
COC(=O)C1C(=O)OC(C)(C)C1C(C)C(=O)c1ccccc1 (configuration not stated) | inactive: 10.2%
CCN(CCO)c1ccc(Nc2cc(-c3ccc(-c4ccccc4)cc3)ncn2)cc1 | inactive: -8.46%
CCCCCCCn1c2c(c(=N)c3ccccc31)CCC2 | inconclusive: -36.4%
O=C(OCc1cccc(Cl)c1)c1cc([N+](=O)[O-])ccc1N1CCOCC1 | inconclusive: -32.8%
O=C(CCCN1C(=O)/C(=C/c2ccccc2)SC1=S)Nc1cccc(O)c1 | active: -52.3%
O=C(Nc1ccccc1)c1ccc(-c2ccc([N+](=O)[O-])cc2)o1 | active: -64.1%
OCCCNc1nc(-c2ccc(Cl)cc2)nnc1-c1ccccc1 | inconclusive: -42.4%
COC1=C(c2ccccc2)C(=O)c2ccccc2C1=O | active: -169%
CCN1CCN(c2ccc(S(=O)(=O)N3CCCCC3)cc2NC(=O)Cc2c(F)cccc2Cl)CC1 | active: -62.6%
CCC(=O)Nc1cccc(C(=O)c2ccc(C)c(C)c2)c1 | inconclusive: -46%
COc1ccc(C(=O)N2CCn3c(C)ccc3C2C)cc1 (configuration not stated) | inactive: -11.2%
FC(F)(F)COc1cc(-c2nnc(SCc3ccccc3)n2Cc2ccco2)cc(OCC(F)(F)F)n1 | inactive: -2.95%
COc1cccc(-c2cnc3c(NC(C)=O)cc(-c4ccc(S(C)(=O)=O)cc4)cn23)c1 | inconclusive: -47.3%
Cc1ccc(NC(=O)NC2CCCc3ccccc32)cc1 (configuration not stated) | inactive: 36.9%

SMILES | activity change
COc1ccc(C2C(C#N)=C(N)N(Nc3ccccc3)C3=C2C(=O)CC(C)(C)C3)cc1C (configuration not stated) | inconclusive: -31.4%
Cn1c(=O)n(CCc2ccccc2)c(=O)c2c1nc1n2CCN1Cc1ccco1 | inactive: 4.26%
Cc1c(NC(=O)CSc2nnc3c4ccccc4n(CCc4ccccc4)c3n2)c(=O)n(-c2ccccc2)n1C | active: -61.7%
COc1ccc(N2CCN(c3ncnc4scc(-c5ccc(F)cc5)c34)CC2)cc1 | inconclusive: -37.3%
COc1ccc(CC(=O)Nc2ccc(-c3noc(-c4ccccc4OC)n3)cc2)cc1 | active: -62.5%
CCc1nc2ccc(C(=O)Nc3cccc(OC)c3)cn2c1N(C)Cc1ccc(OC)cc1 | inconclusive: -42.7%
COc1ccc(/C(C)=N/Nc2nc3ccccc3n3cnnc23)cc1OC | inactive: -4.63%
Cc1ccc(S(=O)(=O)N2CCC(=O)N(CCOCc3cccc(C(F)(F)F)c3)CC2)cc1 | inconclusive: -31.7%
CCCCOc1ccc(/C=C/C2=CC(C)(C)NC(=S)N2)cc1OCC | inconclusive: -40.3%
COc1ccccc1C1=NNC(=NCc2ccccc2)SC1 | inconclusive: -45.1%
N#CC1=C(N)N2C(=C(C#N)C1c1cccc(Br)c1)Nc1ccccc12 (configuration not stated) | active: -119%
COCCn1c(SC(C)C(=O)NCC2CCCO2)nc2sc3c(c2c1=O)CCC3 (configuration not stated) | inactive: -11.9%
CCOC(=O)CCS(=O)(=O)c1ccc(-c2ccc(S(=O)(=O)CCC(=O)OCC)cc2)cc1 | active: -98.9%
O=C(c1c[nH]c2ccccc12)N1CCN(c2ccccc2)CC1 | inconclusive: -48.5%
O=[N+]([O-])c1ccc(Cl)cc1Sc1ccccn1 | inactive: 0%
COc1cc2c(cc1NC(=O)c1ccccc1-c1ccccc1C(=O)O)-c1ccccc1C2 | inactive: -19.7%
N=c1c2c3c(sc2nc2n1CCCCC2)CCCCC3 | inactive: -11.6%
Cc1ccc(OCC(=O)N(Cc2ccco2)c2c(N)n(Cc3ccccc3)c(=O)[nH]c2=O)cc1C | inactive: 0%
O=C(C1CCN(CCc2ccccc2)CC1)N1CCOCC1 | inactive: 2.03%
CCOC(=O)C(Cc1ccccc1)NC(=O)CCc1c(C)nc2nc(C)nn2c1C (configuration not stated) | inconclusive: -33.5%
O=C(Nc1cccc(C(F)(F)F)c1)N1CCC(c2nc(-c3ccc(F)cc3)no2)CC1 | inconclusive: -40.1%
Cc1cc2c3c([nH]c2cc1S(=O)(=O)NCc1ccc(CN2CCCCCC2)o1)CC(C)(C)CC3=O | inactive: -21.8%

SMILES | activity change
CCOC(=O)N1CCC(N(CCOC)C(=O)Nc2ccc(CC)cc2)CC1 | inconclusive: -34.7%
Cc1ccc(O)c(/C=N/NC(=O)c2[nH]ncc2Br)c1 | inactive: -9.61%
O=C(N/C=C\n1cnc2cc(C(F)(F)F)ccc21)c1ccc([N+](=O)[O-])cc1 | inconclusive: -39.4%
COc1ccc(C2CC(c3ccc(Br)cc3)=NN2C(=S)Nc2ccccc2)cc1 (configuration not stated) | inconclusive: -43.1%
CN(C(=O)CSc1cc(C(=O)c2nccn2C)c2ccccc2n1)c1ccccc1 | active: -56.1%
COc1ccc(C(CNC(=O)c2ccc(S(=O)(=O)Nc3cccc(C)c3C)cc2)N2CCOCC2)cc1 (configuration not stated) | inactive: -13.8%
CN1CCN(CCCN2c3ccccc3Sc3ccc(S(=O)(=O)N(C)C)cc32)CC1 | active: -106%
CCN(C(=O)COC(=O)c1cccc2ccccc12)c1c(N)n(Cc2ccccc2)c(=O)[nH]c1=O | inconclusive: -48.7%
CC(=O)N(Cc1cccnc1)c1cccc(-c2nc3ccccc3s2)c1 | active: -61.7%
Cc1ccc(S(=O)(=O)NCCn2nc(C)cc2C)cc1 | inactive: 2.77%
COc1cc2ncnc(Nc3ccc4c(c3)OCO4)c2cc1OC | inconclusive: -43.6%
CC(=O)CCS(=O)(=O)c1ccc(C)c(C)c1 | inconclusive: -36.3%
O=[N+]([O-])c1ccc(N2CCCCC2)cc1SCCO | inactive: 14.1%
C=CCn1c(SCC(=O)NNC(=O)Nc2ccc(C)cc2)nnc1-c1ccccc1 | inconclusive: -35.6%
O=C(O)C1=CCC(c2ccc(Cl)c(Cl)c2)N(S(=O)(=O)c2ccc(F)cc2)C1c1cccc(F)c1 (configuration not stated) | inactive: 3.5%
CCOc1ccc(NC(=O)CCN2CCN(c3ccccc3F)CC2)cc1 | inactive: 42.1%
O=C1C2=C(C(c3ccccc3)=NCCN2)C(c2cccc([N+](=O)[O-])c2)N1c1ccccc1 (configuration not stated) | inconclusive: -42.7%
CCOC(=O)c1c(NC(=O)C(NCCN(C)C)c2ccccc2)sc2c1CCCC2 (configuration not stated) | active: -108%
CCOC(=O)c1c(C)[nH]c(C)c1S(=O)(=O)N(C)CC(=O)NCc1ccc(F)cc1 | inactive: 53.4%
Cc1cccc(OCC(=O)NCCNC(=O)c2ccccn2)c1 | inactive: 11.9%
COc1ccc(N2CCN(C(=O)c3cccs3)CC2)cc1 | inconclusive: -49%
CCOc1ccc(OCCn2c(SCC(=O)O)nc3ccccc32)cc1 | inactive: -21.9%

SMILES | activity change
Nc1ncnc(Sc2ccccc2)c1[N+](=O)[O-] | active: -103%
CSc1cccc(NC(=O)/C=C/c2cccc(Cl)c2)c1 | inconclusive: -38.6%
CCOC(=O)C1=C(NC#N)OC(C)=C(C)C1c1ccc(O)cc1 (configuration not stated) | inactive: 14.9%
CC(C)c1ccc(/C=C2\SC(=S)N(CC(=O)NCCCN3CCOCC3)C2=O)cc1 | inconclusive: -32%
O=C(C1c2ccccc2Oc2ccccc21)N1CCN(c2ccc(Cl)cc2)CC1 | inconclusive: -34.4%
CCC(C)Nc1nc(-c2c[nH]c3ccccc23)cs1 (configuration not stated) | active: -81.8%
CCOC(=O)CN(C(=O)CSc1nnc2c(n1)[nH]c1ccc(OC)cc12)c1ccc(F)cc1 | active: -58.8%
CNC(=S)N(Cc1cc2cc(C)ccc2n2nnnc12)CC(C)(C)CN(C)C | inactive: 5.93%
O=C1NC(Cc2ccc(O)cc2)c2nc3cc(Cl)ccc3c(=O)n2-c2cc(Cl)ccc21 (configuration not stated) | active: -70.5%
c1ccc(-c2sc3ccccc3c2-c2ccc(OCCN3CCCC3)cc2)cc1 | inconclusive: -48.9%
CC1Cc2ccccc2N1C(=O)/C=C/c1cccc(F)c1 (configuration not stated) | active: -68.6%
COc1ccc(-c2cnc3c(NC=O)cc(-c4ccoc4)cn23)cc1OC | inactive: -22.6%
Cc1cc(=O)oc2cc(NC(=S)NCc3ccccn3)ccc12 | inconclusive: -40.9%
COc1ccc(OC)c(N/C(C)=C/C(=O)c2ccccc2)c1 | inconclusive: -44.3%
COC(=O)c1c(NC(=O)Cc2ccc(OC)c(S(=O)(=O)N3CCOCC3)c2)sc(C)c1C | inactive: -22%
CN(CC(O)CON=C1c2ccccc2-c2ccccc21)S(=O)(=O)c1ccc(Br)cc1 (configuration not stated) | inconclusive: -45.4%
Cc1ccc(OCCCCNC(C)(C)C)c([N+](=O)[O-])c1 | inconclusive: -36.3%
O=C(Nc1nnc(C(F)(F)F)s1)C1COc2ccccc2O1 (configuration not stated) | inconclusive: -32.2%
Cc1ccc(C(=O)Nn2c(N)c(S(=O)(=O)c3ccc(C)cc3)c3nc4ccccc4nc32)cc1 | inconclusive: -47.8%
C(=N\Nc1nc2ccccc2s1)/c1ccco1 | inconclusive: -46.3%
Cc1ccc(S(=O)(=O)N2CCC(=O)N(CCOCc3ccc(C(F)(F)F)cc3)CC2)cc1 | inconclusive: -34.6%
